# Measurements: PubChem BioAssay AID493131 (Broad Institute, 2011)
# Out of some 340,000 compounds screened, about 3,300 (0.97%) were called active. Inconclusive means that the source gave no clear call. Such entries were picked first, then a sample of the others.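 How the source made its calls: active means mean activation above about 17%, with every replicate also reaching it (limit read from the data, passing the limit was not always enough); inconclusive means only one of the two conditions met; inactive means the rest.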
# Target: Protein FosB (Mus musculus) (UniProt P13346)
# UniProt P13346, sequence (P13346 whole entry, looked up): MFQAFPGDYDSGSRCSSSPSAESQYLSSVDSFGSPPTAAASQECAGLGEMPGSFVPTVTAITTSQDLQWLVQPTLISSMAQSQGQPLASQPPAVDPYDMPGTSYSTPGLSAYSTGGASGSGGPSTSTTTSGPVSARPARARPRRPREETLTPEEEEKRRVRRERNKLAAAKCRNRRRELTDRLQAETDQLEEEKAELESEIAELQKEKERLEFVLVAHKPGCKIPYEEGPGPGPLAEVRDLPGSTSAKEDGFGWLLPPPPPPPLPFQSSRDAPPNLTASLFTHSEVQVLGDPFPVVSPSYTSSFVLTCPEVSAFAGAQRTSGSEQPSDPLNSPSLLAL
# Assay: enhancers of mouse delta FosB DNA binding – biochemical, fluorescence polarization, TAMRA-CDK5 oligo, single point, primary screen (AID 493131);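 further: fluorescence polarization rise as delta FosB binds a TAMRA Cdk5 AP-1 oligo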
# Settings: purified delta FosB, at 25 µM, active compounds read high, percent of positive-control signal above neutral wells
row,Compound,activation
1,CCCCCCCC[n+]1cccc2c3ccccc3ccc21,inactive: 1.38%
2,CC(=O)Nc1ccc(S(=O)(=O)N2CCN(C34CC5CC(CC(C5)C3)C4)CC2)cc1,inconclusive: 17.1%
3,CCCCN1CC(COCc2ccccc2)Oc2cccc(OCCN3C(=O)[C@@H]4[C@H](C3=O)C3C=C[C@H]4C3)c2S1(=O)=O (some centres undefined),inactive: -11%
4,COCCn1c(=NC(=O)c2cc3ccccc3oc2=O)sc2cc(S(N)(=O)=O)ccc21,inconclusive: 17.7%
5,CN1/C(=C\C=C2/SC(=S)N(CC(=O)O)C2=O)C(C)(C)c2ccccc21,inconclusive: 59%
6,Cc1ccccc1-c1nc(CS(=O)(=O)CC(=O)NCCN2CCOCC2)c(C)o1,inactive: -2.64%
7,Cc1sc2nc(CSCC(=O)Nc3c(Cl)cccc3Cl)[nH]c(=O)c2c1C,active: 32.5%
8,Cc1[nH]c(=O)[nH]c(=O)c1S(=O)(=O)Nc1cccc([N+](=O)[O-])c1C,inactive: -9.72%
9,COC(=O)c1ccc2c(=O)[nH]c(CSc3nc(-c4ccc(F)cc4)cs3)nc2c1,inactive: -6.67%
10,Nc1nc(-c2ccccc2)c(CCCOc2ccc([N+](=O)[O-])cc2)c(=O)[nH]1,inconclusive: 16.7%
11,CCOc1cc(CNCCCN2CCOCC2)cc(Br)c1OCc1ccccc1Cl,active: 20.7%
12,Cc1cc(C)cc(NC(=O)Cn2c(=O)oc3cc(S(=O)(=O)N4CCC(C)CC4)ccc32)c1,inconclusive: 19.5%
13,CN(C)C(=O)CN1c2cccc3cccc(c23)S1(=O)=O,inactive: 10.9%
14,O=S(=O)(c1cccs1)N1CCc2ccccc21,active: 29.1%
15,O=C(CCc1cccc(Cl)c1)N1CCCC(Nc2ccccc2)C1 (centres undefined),inactive: -3.74%
16,CCOC(=O)CNc1nc(Cl)nc(Nc2ccc(Cl)cc2)n1,inconclusive: 16.4%
17,O=C(COC(=O)/C=C/c1cccc([N+](=O)[O-])c1)NCc1ccc2c(c1)OCO2,inconclusive: 19.7%
18,COc1ccccc1C(=O)NNC(=O)c1ccc(NC(=O)C(C)C)cc1,inactive: 1.65%
19,CCCN(CC1CC1)C(=S)NC(=O)c1cc(Br)ccc1Cl,inactive: -13.9%
20,COC(=O)c1sc2ncccc2c1OCc1c(Cl)cccc1Cl,active: 35.2%
21,COc1ccccc1CNC(=O)CN1C(=O)NC(c2ccccc2)(c2ccc(C)c(C)c2)C1=O (centres undefined),inconclusive: 19.3%
22,CCOC(=O)c1cnc(SCC(=O)Nc2cc(C(F)(F)F)ccc2N2CCOCC2)nc1N,active: 20.5%
23,COc1ccc(-c2cc(-c3cccs3)c(C#N)c(SCC(=O)NCc3ccccc3OC)n2)cc1,active: 23%
24,CCOc1cc(/C=N/NC(=O)c2ccc(CN3CCOCC3)cc2)ccc1OCc1ccccc1,active: 20.7%
25,COc1ccc(C(=O)NC(=C(Cl)Cl)S(=O)(=O)c2ccc(C)cc2)cc1,active: 22.7%
26,COc1ccc2cc(C#N)c(SCC(=O)NNC(=O)Cc3ccccc3)nc2c1,active: 68.2%
27,COc1cccc(-c2nc(CS(=O)(=O)CC(=O)Nc3cc(C)ccc3C)c(C)o2)c1,inconclusive: 26%

row,Compound,activation
1,COc1ccc(-n2c(=O)c3ccccc3n(CC(=O)OCc3ccccc3)c2=O)cc1OC,inconclusive: 16%
2,Cc1csc2ncnc(NNC(=O)c3ccc(Cl)cc3)c12,active: 28.1%
3,O=C(COC(=O)c1ccc2c(c1)C(=O)N(CCc1ccccc1)C2=O)Nc1ccc(OC(F)F)cc1,inconclusive: 16%
4,COc1ccc(CNC(=O)c2sc3nc4c(c(C(F)(F)F)c3c2N)CCC4)cc1OC,inactive: -15.4%
5,COc1ccc(C2=CSC(/N=C/c3ccc(F)cc3)=NN2)cc1,inactive: -10.2%
6,CCOC(=O)c1[nH]c2ccccc2c1NC(=O)c1ccc(S(=O)(=O)N2CCOCC2)cc1,inconclusive: 18.2%
7,O=C(Nc1ccc(Cl)cc1Cl)NC1CCN(S(=O)(=O)c2ccc(F)cc2)CC1,active: 55%
8,CCOCCn1ccc2c(OCC(=O)Nc3cc(OC)ccc3OC)cccc2c1=O,inactive: -9.45%
9,Cc1ccc(NC(=O)CN2C(=O)S/C(=C\c3ccccn3)C2=O)cc1C,inconclusive: 20.5%
10,O=C(CCN1C(=O)c2ccccc2S1(=O)=O)Nc1cc(Cl)ccc1Cl,inconclusive: 18.4%
11,N#Cc1c(NC(=O)COC(=O)c2ccc(O)cc2O)sc2c1CCC2,active: 38.9%
12,O=C(N/N=C/c1cccc([N+](=O)[O-])c1)C1CC1c1ccccc1 (centres undefined),inconclusive: 22.5%
13,Cc1cc(C)cc(OCC(=O)Nc2ccc(-n3cnnn3)cc2)c1,active: 33.6%
14,CCN(CC)S(=O)(=O)c1ccc(N=Nc2c(N)[nH]c(=O)[nH]c2=O)cc1,inconclusive: 17.2%
15,COc1ccc(NC(=O)c2ccc3c(=O)n(-c4ccc(OC)cc4OC)c(=S)[nH]c3c2)cc1,inconclusive: 17.2%
16,CCOc1ccc(-n2c(=O)c3sccc3n(CC(=O)NC3CCCCC3)c2=O)cc1,inconclusive: 22.5%
17,CS/C(=C(/C#N)S(=O)(=O)c1ccc(Cl)cc1)N1CCOCC1,inactive: -0.887%
18,C=CC[C@@H](CC(=O)N[C@H](CO)Cc1ccccc1)C(=O)N[C@@H](COC(=O)[C@@H](CC=C)Cc1ccc(F)cc1)Cc1ccccc1,inconclusive: 17.5%
19,COc1ccc(-c2csc3ncn(Cc4ccccc4)c(=O)c23)cc1,inconclusive: 16.6%
20,Cc1ccc(C)c2[nH]c(=O)c(CN(Cc3cccs3)C(=S)NCc3ccco3)cc12,inactive: -6.5%
21,O=C(Nc1ccc(-c2nc3ccccc3o2)cc1)c1ccc2c(c1)OCO2,inconclusive: 19.1%
22,Cc1cccc(Nc2ncccc2C(=O)O)c1C,inactive: -3.34%
23,Cc1ccc(SC(C)C(=O)NC(N)=O)c(C)c1 (centres undefined),inactive: -2.14%
24,Cc1ccc(CNC(=O)C2CCC(CNc3nc(=S)[nH]c4ccccc34)CC2)cc1 (centres undefined),inconclusive: 38.9%
25,CCOC(=O)N1CCN(C(c2ccccc2)c2sc3nc(C)nn3c2O)CC1 (centres undefined),inactive: -5.06%
26,CCSc1nnc(NC(=O)c2cccc(S(=O)(=O)N(C)c3ccccc3)c2)s1,inconclusive: 17.4%
27,COc1ccc(/C=N/NC(=O)c2cccc(NC(=O)c3ccccc3Cl)c2)cc1OC,inconclusive: 16.8%
